# Data as given in the supplement of paper PMC4166925.
# ± gives the standard deviation of the averaged measurements. Whole data set: some 33,000 sequences, median “E-score (dimensionless, -0.5 to 0.5)” near -0.049, cut for the highest 2% near 0.37. Some of the results follow.
# System: T1, PmTbr T-box DNA-binding domain (GST fusion)
# T1 sequence: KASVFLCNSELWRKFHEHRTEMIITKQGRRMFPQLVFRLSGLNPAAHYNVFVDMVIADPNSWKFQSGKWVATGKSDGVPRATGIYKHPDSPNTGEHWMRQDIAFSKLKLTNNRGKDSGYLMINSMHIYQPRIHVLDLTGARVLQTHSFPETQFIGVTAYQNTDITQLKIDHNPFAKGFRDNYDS
# Assay: PBM E-score of 8-mer (E-score (dimensionless, -0.5 to 0.5)); Tbr is Tbrain of the sea star Patiria miniata (Pm) or the sea urchin Strongylocentrotus purpuratus (Sp); higher = stronger binding preference; most listed sequences are background and not binding sites
# Settings: the construct has about 5 more residues each side
# Method: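 Universal protein-binding microarray (Agilent AMADID 016060, 60-bp probes with a 35-bp variable region) incubated with 200 nM GST-fused Patiria miniata Tbr T-box DNA-binding domain (residues 272-466) in PBS pH 7.5. Scored for every ungapped 8-mer (given with its reverse complement) by the Universal PBM Analysis Suite as E-score (modified Wilcoxon-Mann-Whitney enrichment, range -0.5 to 0.5; >0.45 counts as bound) and Z-score of median probe intensity. Two replicate arrays (datasets 1 and 2).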
# 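Also: 200 nM protein in PBS on universal arrays averaged over duplicate arrays.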
row,Sequence,PBM E-score of 8-mer
1,ACGGCTAA,-0.195 ± 0.092
2,GCAGTCGA,-0.103 ± 0.045
3,CGCGCCCA,0.174 ± 0.03
4,TAACTTAA,-0.107 ± 0.048
5,TATCAACA,0.0781 ± 0.09
6,AACAGTGC,0.0577 ± 0.058
7,CTTAATAA,-0.304 ± 0.1
8,GAGACAAA,0.0638 ± 0.036
9,CACGAGTG,0.249 ± 0.005
10,GAAATAAC,0.214 ± 0.003
11,ACAGAAAG,-0.169 ± 0.0034
12,AGAGTGTC,0.385 ± 0.0076
13,CTCAAAGA,-0.255 ± 0.014
14,ATATGCAT,-0.105 ± 0.014
15,CAGGTCCC,-0.0463 ± 0.078
16,AGCACATG,0.133 ± 0.0018
17,GTATAGTA,-0.165 ± 0.0065
18,ATGAAGTA,-0.255 ± 0.027
19,AGTTCAGC,-0.0543 ± 0.047
20,AATCTCGT,-0.0385 ± 0.012
21,CCTCACAA,0.155 ± 0.016
22,TAAAAATA,-0.00747 ± 0.055

row,Sequence,PBM E-score of 8-mer
1,GAATATAC,-0.167 ± 0.026
2,CGATTGGA,-0.235 ± 0.032
3,GTCGTCAA,0.241 ± 0.028
4,AACAACAG,-0.024 ± 0.086
5,CAAGGACA,-0.161 ± 0.012
6,GGGCACTA,-0.147 ± 0.02
7,ACTATAAA,-0.202 ± 0.022
8,ATATCTTG,-0.114 ± 0.022
9,AATCGACG,0.135 ± 0.0088
10,CATAGTCG,0.0252 ± 0.079
11,CTGGTAGC,0.0265 ± 0.042
12,ACCGGACG,-0.00851 ± 0.03
13,CGTATTGA,-0.122 ± 0.0047
14,AAGAATGC,-0.155 ± 0.071
15,ACCCTCCG,-0.0724 ± 0.014
16,AGCGCTTG,-0.02 ± 0.022
17,GTGGTAAC,0.161 ± 0.021
18,ATATGGAA,-0.229 ± 0.0052
19,CGTCAAAA,0.316 ± 0.0064
20,ACGACTAC,-0.0417 ± 0.085
21,GCTGTGAC,0.208 ± 0.037
22,ATCCTCCA,-0.0688 ± 0.099

row,Sequence,PBM E-score of 8-mer
1,TCTGTTCA,0.0089 ± 0.041
2,CTATAGGA,-0.2 ± 0.065
3,CAACAGTG,0.159 ± 0.033
4,ACACCCCA,0.382 ± 0.015
5,CTACTACA,-0.157 ± 0.027
6,ACTATGAG,-0.17 ± 0.049
7,CGATTGAG,-0.202 ± 0.038
8,GAATTATA,-0.0658 ± 0.064
9,AATGTCGA,0.0192 ± 0.036
10,GGAAGAAC,-0.227 ± 0.041
11,AGGAGTCA,-0.0195 ± 0.023
12,CGACGACA,0.147 ± 0.018
13,ACCACGGC,0.0393 ± 0.052
14,CGTTCGAG,-0.136 ± 0.0015
15,CAATTGTC,0.226 ± 0.044
16,ACACTACG,0.283 ± 0.0065
17,GACTTATA,0.0852 ± 0.044
18,GCATTGTA,0.00576 ± 0.00042
19,ATCTCGGA,-0.299 ± 0.016
20,AGTGTCGA,0.4188 ± 0.0041
21,TTCATAAA,-0.114 ± 0.074
22,GGCGACGA,0.195 ± 0.0081

row,Sequence,PBM E-score of 8-mer
1,CGGGCTTC,-0.245 ± 0.033
2,ACAGGAAC,-0.0466 ± 0.036
3,AAATGCGA,-0.0108 ± 0.0092
4,ACGTGGCA,0.232 ± 0.032
5,CCGCCTCG,-0.00885 ± 0.021
6,AGGTTGTA,0.0566 ± 0.027
7,ACCCACGG,-0.132 ± 0.022
8,ACGATATA,-0.174 ± 0.0053
9,CACAGAAG,0.127 ± 0.012
10,CCTCCAAC,-0.0441 ± 0.032
11,TCATCCGA,-0.203 ± 0.012
12,TAGCAGCA,0.031 ± 0.019
13,CCGACGCG,0.164 ± 0.026
14,TAATGGGA,-0.0306 ± 0.0075
15,ATATAAGC,-0.204 ± 0.018
16,ACATGCTC,-0.0798 ± 0.051
17,CCGTGCCA,0.228 ± 0.041
18,GGCAAAAC,-0.016 ± 0.018
19,CACGAAAC,0.127 ± 0.03
20,GCAATACC,-0.0713 ± 0.099
